In PubChem BioAssay AID1240 (Sanford-Burnham Center for Chemical Genomics, 2008):
Out of some 50,000 compounds screened, about 800 (1.6%) showed an effect of 50% or more. This is one part of the list.

Molecular target: Bcl-2-like protein 10 (Homo sapiens) (UniProt Q9HD36)
Assay: TR3 peptide-Bcl-B binding displacers, biochemical primary FP assay, phenotype converters (AID 1240);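 note: 0% = Bcl-B with tracer peptide and DMSO and 100% = tracer peptide lacking Bcl-B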
Details: GST-Bcl-B / FITC-TR3 peptide fluorescence polarization; stronger effect = higher value; compound at 3.75 mg/L

Sequence of UniProt Q9HD36 (Q9HD36 whole entry, looked up): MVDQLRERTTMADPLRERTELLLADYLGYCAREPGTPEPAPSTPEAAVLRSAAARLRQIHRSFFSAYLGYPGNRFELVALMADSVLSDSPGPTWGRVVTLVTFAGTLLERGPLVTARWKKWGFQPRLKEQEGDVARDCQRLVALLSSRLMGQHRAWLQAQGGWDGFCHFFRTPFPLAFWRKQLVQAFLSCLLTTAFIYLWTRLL

Compared with `O=C1/C(=C/c2cccc([N+](=O)[O-])c2)SC(=S)N1c1ccc(F)cc1`, `O=S(=O)(c1cc(Cl)ccc1Cl)N1CCN(c2ccc(F)cc2)CC1` is lower in displacement: 14.2% for the first, -7.1% for the second.

First: COc1ccc(CNC(=O)c2cc(OC)cc(OC)c2)cc1
Second: COc1ccc(N(CC(=O)NCc2ccc(C)cc2)S(=O)(=O)c2ccc(OC)c(OC)c2)cc1
The displacement of the first is higher: 8.7% for the first, -4.7% for the second.

Going from `Cc1ccc(C(=O)NCC(=O)c2ccccc2)cc1` to `Cc1cccc(/C=N/NC(=O)c2ccc(-c3ccccc3)cc2)c1`, the displacement falls from 1.2% to -6%.

First: COc1ccc(OC)c(S(=O)(=O)N2CCN(C)CC2)c1
Second: CN1CCN(Cc2c(O)ccc3cc(-c4ccccn4)c(=O)oc23)CC1
The displacement of the first is lower: -7.7% for the first, 25.9% for the second.

Compared with `O=[N+]([O-])c1ccc(CP(=O)(c2ccccc2)c2ccccc2)cc1`, `COc1ccc(CNC(=O)C2c3ccccc3Oc3ccccc32)cc1` is higher in displacement: -0.7% for the first, 11.4% for the second.

First: CCOc1ccc(NC2=C(Cl)C(=O)N(c3cccc(Cl)c3Cl)C2=O)cc1
Second: CCOc1ccc(C(=O)Nc2ccc(NC(=O)c3cccc(C)c3)cc2)cc1
The displacement of the first is higher: 16.3% for the first, -6.9% for the second.

Going from `COc1ccc(NC(=O)CN2C(=O)c3ccccc3C2=O)cc1O` to `COc1ccccc1N(CC(=O)Nc1cccc(Br)c1)S(=O)(=O)c1ccccc1`, the displacement rises from -3.4% to 1.1%.

Going from `CSc1ccc(CN2CCN(Cc3ccc([N+](=O)[O-])cc3)CC2)cc1` to `CCN1CCN(Cc2c(C)[nH]c3c(ccc4ccccc43)c2=O)CC1`, the displacement rises from 2.5% to 8.8%.

Going from `CCC(C(=O)Nc1cccc(C(C)=O)c1)c1ccccc1` (configuration not stated) to `COC(=O)c1cccc(NC(=O)COc2ccc(Br)cc2)c1`, the displacement rises from 6.9% to 13.5%.

Going from `CCOc1cc(/C=N/Nc2nncn2N)cc(I)c1O` to `CCOc1ccc(/C=C2/NC(=S)NC2=O)cc1`, the displacement rises from 1.3% to 10.8%.

Compared with `CCOC(=O)c1c(NC(=O)C2C3CCC(C3)C2C(=O)O)sc2c1CCC(CC)C2` (configuration not stated), `CCOC(=O)C1=C(C)N=c2s/c(=C\c3cc(Br)ccc3O)c(=O)n2C1c1ccc(OC)cc1` (configuration not stated) is higher in displacement: -7.9% for the first, 3.5% for the second.

First: Cc1ccc(-n2nc3cc(C)c(NC(=O)c4ccco4)cc3n2)cc1
Second: Cc1ccccc1OCC(=O)Nc1ccc(NC(=O)c2ccco2)cc1
The displacement of the first is higher: 107% for the first, 14.7% for the second.

Going from `O=C(COc1ccccc1Cl)Nc1nccs1` to `CSc1nsc(SC)c1NC(=O)OCCc1ccccn1`, the displacement rises from 0% to 0.4%.

Going from `COc1ccc(CNCC(CO)C2(c3ccccc3)CCOC(C)(C)C2)cc1` (configuration not stated) to `CC1(C)Nc2ccccc2N(Cc2ccccc2)C1=O`, the displacement rises from 8% to 10%.

First: Cc1ccc(/C=N\N2CCN(c3ccccc3)CC2)cc1
Second: CCNC(=S)N(Cc1ccccc1)/N=C\c1ccccc1
The displacement of the first is lower: -3.9% for the first, -2.8% for the second.

Compared with `COc1ccc(OCCCCCNCCO)cc1`, `COc1ccc(C(=O)Nc2ccncc2)cc1Br` is higher in displacement: 5.2% for the first, 13.6% for the second.
